Laboratory results taken from PubChem BioAssay AID686979 (National Center for Advancing Translational Sciences (NCATS), 2013).
“And” between values parts separate entries of the source, which are not always exact repeats. Equal values may be shown once. Hit rate of the full screen: of about 420,000 compounds, about 50,000 (12%) were called active. The inconclusive results got no clear call from the source; some entries with a clear call stand among them for comparison. The call rests on the fitted dose curve; in most records, active means well fitted inhibition curve with a large enough effect; inconclusive means small, poorly fitted or top-dose-only effect; inactive means flat fitted curve, though single readings scatter. No potency is given beside an inconclusive call; the fits are too rough.
On the % scale 0 is the no-effect control and ±100 the full control effect; potency means the concentration at half of the fitted maximal effect; tags describe the fitted curve by direction and shape.

Test: qHTS for Inhibitors of human tyrosyl-DNA phosphodiesterase 1 (TDP1): qHTS in cells in presence of CPT; further: nearly all actives have a fitted effect of over 55% in size
Conditions: chicken DT40 Tdp1-/-;hTDP1 cells + 20 nM CPT, ATP luminescence, 48 h; activity change, negative = growth inhibition: at 46.2 µM (top of the series) unless noted
In short: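 Chicken DT40 Tdp1-/- cells complemented with human TDP1, 400 cells/well, exposed to compounds plus 20 nM camptothecin for at least 48 h at 37 C; viability read as ATP content by CellTiter-Glo luminescence.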
For `COc1ccc(N=c2oc3cc(O)ccc3cc2C(=O)Nc2ccccn2)cc1OC`, the Potency was active: 1.46 µM.
With `Cc1cc(C(F)(F)F)nc(-n2cc(-c3ccccc3)nn2)n1` the Potency was “inactive”.
For `Cc1ccc(C)c(OCC(=O)N/N=C/c2c(C)nn(-c3ccccc3)c2Cl)c1C`, the Potency was active: 14.6 µM.
In the case of `COC(=O)[C@@H](c1ccccc1)N(C)S(=O)(=O)c1cccc(S(=O)(=O)N(C)[C@@H](C(=O)OC)c2ccccc2)c1`, the Potency is reported as active: 5.8 µM.
With `O=C(NCc1ccccc1)C(c1cccc2ccccc12)n1c(=O)c(-c2cc3ccccc3[nH]2)nc2ccccc21` (configuration not stated) the Potency was active: 14.6 µM.
With `CCOc1ccc(NC(=O)c2sc3nc4c(c(-c5ccc(OC)cc5)c3c2N)C(=O)CC(C)(C)C4)cc1` the Potency was inconclusive [inhibitor, single point].
For `Cc1c(NP(=O)(c2ccc(Br)cc2)c2ccc(Br)cc2)c(=O)n(-c2ccccc2)n1C`, the Potency was inconclusive [inhibitor, single point].
For `COc1ccccc1Nc1cc(C(=O)NC2CCC(C)CC2)c2ccccc2n1` (configuration not stated), the Potency was “inactive”.
In the case of `COc1cc(NC(=O)c2ccco2)c(OC)cc1NC(=O)CCC(=O)Nc1cc(C)cc(C)c1`, the Potency is reported as inconclusive [inhibitor, partial curve].
With `COc1ccc(CCNCC(O)Cn2c3ccccc3c3ccccc32)cc1OC` (configuration not stated) the Potency was active: 13 µM.
With `CSc1ccc(S(=O)(=O)Nc2ccc(NC(C)=O)cc2)cc1` the Potency was inconclusive [inhibitor, partial curve, poor fit].
For `Cc1ccccc1S(=O)(=O)NC1OC(=O)C(Cl)=C1Cl` (configuration not stated), the Potency was active: 20.6 µM.
For `COc1ccc(Br)c(C(=O)NC2CCCC2)c1`, the Potency was “inactive”.
For `c1ccc(CC2CCN(C(c3cccs3)c3nnnn3C3CCCC3)CC2)cc1` (configuration not stated), the Potency was inconclusive [inhibitor, single point].
For `Cc1cc(=O)[nH]c2nnnn12`, the Potency was inconclusive [inhibitor, single point].
With `CN(CC(=O)Nc1ccc(N2CCOCC2)cc1)C(=O)CSc1ccc(F)cc1` the Potency was “inactive”.
For `CN(C)c1ccc(-c2cc(NCc3ccccc3)ncn2)cc1`, the Potency was inconclusive [inhibitor, single point].
For `Cc1cccc2cc(C#N)c(NCc3ccccc3)nc12`, the Potency was inconclusive [inhibitor, single point].
With `O=C(c1cnn2c(C(F)(F)F)cc(-c3cccs3)nc12)N1CCN(C(c2ccccc2)c2ccccc2)CC1` the Potency was active: 9.2 µM.
In the case of `CN(C)C(C)(C)C#CCC(c1ccccc1)c1ccccc1`, the Potency is reported as inconclusive [inhibitor, single point].
For `COc1ccccc1C(CNC(=O)COc1cc(C)ccc1Cl)N1CCCC1` (configuration not stated), the Potency was inconclusive [inhibitor, single point].
In the case of `O=C(CN1CCN(CC(=O)Nc2ccccc2Cl)CC1)Nc1ccc(F)c(F)c1`, the Potency is reported as inconclusive [inhibitor, partial curve, poor fit].
In the case of `CCn1c2ccccc2c2cc(NC(=O)CSc3nnc(-c4ccc(OC)cc4)n3N)ccc21`, the Potency is reported as inconclusive [inhibitor, partial curve].
In the case of `Cc1c(Cl)cccc1NC(=O)C1CCN(c2ncnc3c2nc2n3CCCCC2)CC1`, the Potency is reported as inconclusive [inhibitor, single point].
In the case of `O=C(CSc1ccccc1)N1CCCC(Nc2ccccc2)C1` (configuration not stated), the Potency is reported as inconclusive [inhibitor, single point].
In the case of `Cc1ccc2nc(Nc3ccc(C)c(F)c3)c3nncn3c2c1`, the Potency is reported as active: 18.4 µM.
With `CCC(C)NC(=O)CCc1nc2ccccc2n1-c1ccccc1` (configuration not stated) the Potency was inconclusive [inhibitor, single point].
For `CCCN(CCC)C(=S)NC(=O)c1ccc(-c2ccccc2)cc1`, the Potency was inconclusive [inhibitor, single point].
For `COc1ccccc1CN1C(=O)CN(C2CCCCCC2)C(=O)C1c1ccc(F)cc1` (configuration not stated), the Potency was active: 14.1 µM and active: 20.6 µM.
With `O=C(CSc1nnc(-c2cccc(F)c2)o1)NC1CCCC1` the activity change, negative = growth inhibition was inconclusive: -39.4% [inhibitor].
In the case of `CCCCn1cnc2c(SCc3ccc(Cl)cc3)nc(N)nc21`, the Potency is reported as inconclusive [inhibitor, single point].
With `Cc1cc2[nH]c(=O)c(=O)[nH]c2cc1S(=O)(=O)Nc1cccc(F)c1` the Potency was “inactive”.
In the case of `N=C1/C(=C\c2coc3ccccc3c2=O)C(=O)N=C2SC=CN12`, the Potency is reported as inconclusive [inhibitor, partial curve, poor fit].
With `Cc1ccc(S(=O)(=O)N2CCN(C(=O)CN3CCN(c4ccc(O)cc4)CC3)CC2)cc1` the Potency was inconclusive [inhibitor, single point].
With `OC(Cc1cccc(Br)c1)c1ncc(-c2cccc(C(F)(F)F)c2)[nH]1` (configuration not stated) the Potency was inconclusive [inhibitor, single point].
For `CCN(C(=O)Nc1cn(CC(C)C)c(=O)c2ccccc12)c1cc(C)ccc1C`, the Potency was active: 9.2 µM.
For `OC(CN1CC=C(/C=C/c2ccc(Br)cc2)CC1)c1ccccc1` (configuration not stated), the Potency was inconclusive [inhibitor, single point].
With `CCOC(=O)N1CCN(C(=O)c2ccc([N+](=O)[O-])cc2Cl)CC1` the Potency was inconclusive [inhibitor, single point].
With `O=C(c1ccc2c(=O)n(Cc3ccco3)c(=S)[nH]c2c1)N1CCCC1` the Potency was “inactive”.
With `CC(=O)Nc1ccc(NC(=O)c2cccc(Oc3ccccc3)c2)cc1` the Potency was “inactive”.
In the case of `CCCCCc1c(CC)ncn1CCc1ccccc1OC`, the Potency is reported as active: 4.61 µM.
In the case of `COc1ccc(CCN2C(=S)N(C)C(=O)C2CC(=O)Nc2ccc(OC)cc2)cc1` (configuration not stated), the Potency is reported as active: 11.6 µM.
With `O=C(NNc1cc(C(F)(F)F)nc2ccccc12)Nc1cccc(Cl)c1` the Potency was inconclusive [inhibitor, single point].
With `Cc1ccc(S(=O)(=O)Nc2ccccc2[N+](=O)[O-])cc1` the Potency was “inactive”.
For `Cc1ccc(N2CC(NC(=O)c3ccc(S(=O)(=O)N4CCOCC4)cc3)CC2=O)cc1` (configuration not stated), the Potency was “inactive”.
For `CCOc1ccc(S(=O)(=O)N2CCN(CC(O)COc3cccc([N+](=O)[O-])c3)CC2)cc1` (configuration not stated), the Potency was active: 14.6 µM.
In the case of `COc1ccccc1N(CC1CO1)S(=O)(=O)c1ccccc1` (configuration not stated), the Potency is reported as inconclusive [inhibitor, partial curve].
For `COc1cc(C(=O)N/N=C/c2ccsc2C)cc(OC)c1OC`, the Potency was active: 1.16 µM.
With `COc1cccc2sc3cc(NCc4ccc(C)o4)ccc3c(=O)c12` the Potency was inconclusive [inhibitor, single point].
With `COc1ccc2cc(C(=O)NCc3ccc4c(c3)CCN4C(=O)c3ccc(F)cc3)[nH]c2c1` the Potency was active: 20.6 µM.
In the case of `Cn1c(O)c(N=NC(=O)CNC(=O)/C=C/c2ccccc2)c2ccccc21`, the Potency is reported as inconclusive [inhibitor, single point].
For `Cc1ccc(-c2nnn(CC(=O)N(CC(=O)NC(C)C)c3cnc4ccccc4c3)n2)o1`, the Potency was “inactive”.
In the case of `COc1cc(-n2ccnc2SC)c(Cl)cc1Cl`, the Potency is reported as inconclusive [inhibitor, single point].
With `COc1cccc(-c2ccc(SCC(=O)NC3CCCC3)nn2)c1` the Potency was “inactive”.
In the case of `CCc1nnc(N/N=C/c2ccccc2Cl)n1N`, the Potency is reported as “inactive”.
For `CCc1ccc2[nH]c(=O)c(CN(CCN3CCCC3)C(=O)NC3CCCCC3)cc2c1`, the Potency was active: 16.4 µM.
With `COc1cc(NC(=O)CN2C(=O)NC(C)(c3ccc(OC(F)F)cc3)C2=O)cc(OC)c1OC` (configuration not stated) the Potency was inconclusive [inhibitor, single point].
With `COCCCNC(=O)c1c(N)n(-c2ccccc2)c2nc3ccccc3nc12` the Potency was inconclusive [inhibitor, partial curve, poor fit].
In the case of `CCCCCCCNC(=O)C1(CC2CC(c3ccc(Cl)cc3)=NO2)CCN(C(=O)c2ccccc2)CC1` (configuration not stated), the Potency is reported as inconclusive [inhibitor, single point].
With `O=C(COc1cccc2c1CCNC2=O)Nc1ccc(F)cc1` the Potency was inconclusive [inhibitor, single point].
With `CCOc1ccccc1C(=O)NC(C(=O)N(C)c1c(N)n(Cc2ccccc2)c(=O)[nH]c1=O)C(C)C` (configuration not stated) the Potency was “inactive”.
With `C=CCc1c(C)nc(-c2ccccc2)nc1N/N=C/c1ccccc1` the Potency was inconclusive [inhibitor, single point].
For `O=C(CCn1c(=O)c2cccn2c2cccnc21)N1CCN(c2ccccc2F)CC1`, the Potency was inconclusive [inhibitor, single point].
In the case of `COc1cc(OC)c(C(=O)Nc2ccc3ccccc3c2)cc1OC`, the Potency is reported as inconclusive [inhibitor, single point].
In the case of `c1cncc(-c2cn(C[C@H]3CC[C@H](Cn4cc(-c5cccnc5)nn4)O3)nn2)c1`, the Potency is reported as “inactive”.
In the case of `CCn1c(=N)n(CCOc2ccc(Br)cc2)c2ccccc21`, the Potency is reported as active: 5.8 µM.
With `CC(C)CNC(=O)N1[C@H](c2cccs2)[C@@H](C)C(=O)[C@@H](C)[C@@H]1c1cccs1` the Potency was active: 18.4 µM.
In the case of `Cc1[nH]n(-c2ccc(Cl)cc2)c(=O)c1/C=N/n1c(C)nc2ccccc2c1=O`, the Potency is reported as active: 20.6 µM.
With `Cc1cccc(OCC(=O)Nc2ccc(-c3nc4ccccc4o3)cc2)c1C` the Potency was inconclusive [inhibitor, single point].
In the case of `CCn1c(/C=C/c2cc[n+](C)cc2)nc2ccccc21`, the Potency is reported as “inactive”.
In the case of `Fc1cccc(-c2nnn3c2nc(Cl)c2ccccc23)c1`, the Potency is reported as active: 2.59 µM.
In the case of `Cc1ccc(S(=O)(=O)N2CC3(O)CN(C(=O)OC(C)C)N(C(=O)OC(C)C)CC3(OC(=O)NCC3CCCCC3)C2)cc1` (configuration not stated), the Potency is reported as active: 16.4 µM.
